“And” between values parts separate entries of the source, which are not always exact repeats. Equal values may be shown once. This list was built around the results that the source calls inconclusive (neither active nor inactive); the mix of calls is not that of the screen. For some assays here: Potencies of inconclusive entries are doubtful fits and often do not repeat. The source made the active and inactive calls. Unless noted, the call rests on the fitted dose curve; in most records, active means well fitted curve in the direction sought with a large enough effect in the repeat runs; inconclusive means weak or mixed curves; inactive means no such curve, though single readings can be large; an effect the other way counts as inactive or inconclusive.
Assays:
[1] = qHTS assay to identify small molecule agonists of H2AX (AID 1224845; active means well fitted activation curve with a large enough effect in the signal ratio in the repeat runs, not every such curve was filed as active; inconclusive means weak or mixed curves; the % refers to the signal ratio; further: potency means the concentration at half of the fitted maximal effect); details: CHO-K1 phospho-H2AX Ser139 HTRF, 3 h; activation (H2AX phosphorylation): at 154 µM (top of the series) unless noted
Procedure, shortened: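 Wild-type CHO-K1 cells plated overnight, then exposed 3 hr at 37C to compounds at 15 concentrations (0.76% DMSO). Lysed, then HTRF anti-pH2AX(S139)-cryptate/anti-H2AX-d2 detection after 24 hr at room temperature; emissions 665 and 620 nm.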

[2] = qHTS assay to identify small molecule antagonists of the estrogen related receptor (ERR) signaling pathway from Tox21 library (AID 1224848); further: potency means the concentration at half of the fitted maximal effect; nearly all actives have a fitted effect of over 50% in size
Procedure, shortened: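 First, 2,000 ERR cells per well were plated and held 6 h at 37 C/5% CO2. Next, compounds in DMSO were pinned in and left 18 h at 37 C. Finally, ONE-Glo was added and luminescence read after 30 min at room temperature.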

[3] = qHTS RealTime-Glo MT Cell Viability Assay in HepG2 cells - 24 hour (AID 1224867); further: nearly all actives have a fitted effect of over 50% in size; further: potency means the concentration at half of the fitted maximal effect
Procedure, shortened: (§1)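 Cells + NanoLuc/prosubstrate dispensed (600 cells/well) → 5 h at 37 C/5% CO2 → compounds in DMSO transferred → 40 h incubation at 37 C, luminescence read at 0, 8, 16, 24, 32, 40 h.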

[4] = qHTS RealTime-Glo MT Cell Viability Assay in HepG2 cells - 40 hour (AID 1224870); further: nearly all actives have a fitted effect of over 50% in size; further: potency means the concentration at half of the fitted maximal effect
Procedure, shortened: (§2)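 HepG2 cells mixed with RealTime-Glo MT reagents (NanoLuc plus cell-permeant prosubstrate) were seeded at 600 cells/well, incubated 5 h at 37 C/5% CO2, then pinned with compounds in DMSO; nonlytic luminescence tracked viability during 40 h treatment.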

[5] = qHTS RealTime-Glo MT Cell Viability Assay in HEK293 cells - 16 hour (AID 1224872); further: potency means the concentration at half of the fitted maximal effect; nearly all actives have a fitted effect of over 50% in size
Procedure, shortened: (§3)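 Tox21 10K qHTS, HEK293, 600 cells/well, RealTime-Glo reagent co-dispensed with cells; 5 h preincubation, compound by pintool, 37 C, luminescence at 0–40 h.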

[6] = qHTS RealTime-Glo MT Cell Viability Assay in HEK293 cells - 40 hour (AID 1224874); details: RealTime-Glo luminescence; max response: hits give low values
Procedure, shortened: (§4)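 600 HEK293 cells per well, dispensed already mixed with RealTime-Glo MT reagents. Compound dosing came 5 h later. The same wells were read for luminescence at 0, 8, 16, 24, 32 and 40 h of exposure at 37 C.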

[7] = qHTS RealTime-Glo MT Cell Viability Assay in HepG2 cells - 32 hour (AID 1224877); further: potency means the concentration at half of the fitted maximal effect; nearly all actives have a fitted effect of over 55% in size
Procedure, shortened: as §1

[8] = A CellTox Green Cytotoxicity Assay to monitor cytotoxicity in HepG2 cells - 40 hour (AID 1224879); further: potency means the concentration at half of the fitted maximal effect; nearly all actives have a fitted effect of over 40% in size
Procedure, shortened: (§5)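 First, HepG2 cells (600/well) mixed with reagent were plated; second, after 5 h at 37 C they received compounds via pintool; third, fluorescence was measured at 0 h through 40 h at 8 h intervals.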

[9] = A CellTox Green Cytotoxicity Assay to monitor cytotoxicity in HEK293 cells - 32 hour (AID 1224881); further: potency means the concentration at half of the fitted maximal effect; nearly all actives have a fitted effect of over 40% in size
Procedure, shortened: (§6)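 Dead-cell fluorescence measured kinetically: asymmetric cyanine dye, HEK293, 600 cells/well, 5 h settle, 23 nL cpd/DMSO, 37 C, reads 0–40 h every 8 h.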

[10] = qHTS assay to identify small molecule agonists of the estrogen related receptor (ERR) signaling pathway from Tox21 library (AID 1224849; calls by dose curve; further: on the % scale 0 is the no-effect control and ±100 the full control effect; nearly all actives have a fitted effect of over 15% in size); details: ERR reporter cell line, ONE-Glo luciferase, 18 h; at 92.4 µM (top of the series)
Procedure, shortened: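 Quantitative HTS in agonist format: NTP ERR cell line, compounds transferred in DMSO after 6 h plating, 18 h incubation at 37 C, ONE-Glo luminescence endpoint.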

[11] = qHTS assay to identify small molecule agonists of the hypoxia (HIF-1) signaling pathway (AID 1224846; active means well fitted activation curve with a large enough effect in the signal ratio in the repeat runs, not every such curve was filed as active; inconclusive means weak or mixed curves; the % refers to the signal ratio; further: potency means the concentration at half of the fitted maximal effect); details: HRE-bla ME-180 cells, beta-lactamase ratio, 17 h; activation: at 76.8 µM (top of the series) unless noted
Procedure, shortened: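 Agonist mode reporter screen. ME-180 cells stably expressing bla under HRE control received test compounds in DMSO for 17 hrs (37C, 5% CO2), and beta-lactamase activity was then detected with the CCF4-AM FRET substrate.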

[12] = qHTS RealTime-Glo MT Cell Viability Assay in HEK293 cells - 32 hour (AID 1224868)
Procedure, shortened: as §3

[13] = A CellTox Green Cytotoxicity Assay to monitor cytotoxicity in HEK293 cells - 40 hour (AID 1224871); further: potency means the concentration at half of the fitted maximal effect; nearly all actives have a fitted effect of over 45% in size
Procedure, shortened: as §6

[14] = A CellTox Green Cytotoxicity Assay to monitor cytotoxicity in HEK293 cells - 24 hour (AID 1224875); further: potency means the concentration at half of the fitted maximal effect; nearly all actives have a fitted effect of over 45% in size
Procedure, shortened: as §6

[15] = A CellTox Green Cytotoxicity Assay to monitor cytotoxicity in HepG2 cells - 24 hour (AID 1224878); further: potency means the concentration at half of the fitted maximal effect; nearly all actives have a fitted effect of over 45% in size
Procedure, shortened: as §5

[16] = qHTS assay to identify small molecule agonists of H2AX - cell viability counter screen (AID 1224847; calls by dose curve; further: potency means the concentration at half of the fitted maximal effect; nearly all actives have a fitted effect of over 30% in size)
Procedure, shortened: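 After overnight plating of 1000 CHO-K1 cells per well, a 15-concentration compound series was applied for 3 hr at 37C. Luminescence from CellTiter-Glo, read following 30 min at room temperature, reflected cell viability.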

[17] = qHTS RealTime-Glo MT Cell Viability Assay in HEK293 cells - 0 hour (AID 1224880); further: potency means the concentration at half of the fitted maximal effect; nearly all actives have a fitted effect of over 45% in size
Procedure, shortened: as §4

[18] = A CellTox Green Cytotoxicity Assay to monitor cytotoxicity in HepG2 cells - 16 hour (AID 1224876)
Procedure, shortened: as §5

[19] = qHTS RealTime-Glo MT Cell Viability Assay in HepG2 cells - 8 hour (AID 1224873); further: potency means the concentration at half of the fitted maximal effect; nearly all actives have a fitted effect of over 55% in size
Procedure, shortened: as §2
Tags describe the fitted curve by direction and shape or compound fluorescence and quenching.

C[C@@H]1CC(=O)NN=C1c1ccc(NN=C(C#N)C#N)cc1
inconclusive: Potency [1] 43.8 µM [falling, partial curve] and 24.7 µM [falling, partial curve] | Potency [2] 10.6 µM [inhibitor, full curve] | Potency [3] 16.9 µM [falling, partial curve, poor fit] | Potency [4] 21.3 µM [falling, partial curve] | Potency [5] 21.3 µM [cytotoxic, partial curve] and 21.3 µM [cytotoxic, single point] | Potency [6] 26.8 µM [cytotoxic, single point] and 26.8 µM [cytotoxic, partial curve, poor fit] | Potency [7] 16.9 µM [cytotoxic, partial curve] and 19 µM [cytotoxic, partial curve] | Potency [9] 26.8 µM [activator, single point]
active: Potency [8] 15.1 µM and 13.4 µM

CN(C[C@@H](CC[N+]12CCC(C3CCCCC3)(CC1)CC2)c1ccc(Cl)c(Cl)c1)C(=O)c1cc(C(F)(F)F)cc(C(F)(F)F)c1
inactive: activity change, positive = activation [10] -78.4%

O=c1[nH]sc2ccccc12
active: Potency [12] 30.9 µM | Potency [13] 54.9 µM | Potency [5] 38.9 µM | Potency [7] 21.9 µM | Potency [9] 54.9 µM
inconclusive: Potency [11] 15.5 µM [falling, full curve] | Potency [14] 54.9 µM [activator, single point]

CCCCCCCC/C=C\CCCCCCCC(=O)N(CCO)CCO
inactive: Potency [4]
active: Potency [5] 43.5 µM
inconclusive: Potency [11] 54.7 µM | Potency [13] 21.8 µM [activator, single point] | Potency [14] 9.74 µM [activator, single point] | Potency [15] 54.7 µM [activator, single point] | Potency [8] 54.7 µM [activator, single point] | Potency [9] 17.3 µM [activator, single point]

CC(C)(C)CC(C)(C)c1ccc(OCCOCC[N+](C)(C)Cc2ccccc2)cc1
active: Potency [16] 101 µM and 49.2 µM | Potency [3] 48.9 µM and 9.52 µM | Potency [4] 9.52 µM | Potency [5] 21.3 µM | Potency [9] 38.9 µM and 21.3 µM
inconclusive: Potency [17] 21.9 µM [rising, partial curve, poor fit] and 9.52 µM [rising, partial curve, poor fit]

O=C(c1ccc(O)cc1)c1ccc(O)cc1O
inactive: Potency [3]
inconclusive: Potency [16] 72.1 µM [rising, partial curve] and 101 µM [rising, partial curve] | Potency [12] 24.5 µM [cytotoxic, partial curve, poor fit] | Potency [6] 21.9 µM [cytotoxic, partial curve, poor fit] | Potency [18] 49 µM [activator, partial curve] | Potency [15] 43.6 µM [activator, partial curve] | Potency [8] 55.5 µM [activator, partial curve, poor fit]

CCCCCCCCn1sc(Cl)c(Cl)c1=O
inconclusive: Potency [11] 11 µM [falling, full curve]
active: Potency [3] 4.9 µM | Potency [12] 3.89 µM | Potency [13] 1.95 µM | Potency [5] 3.47 µM | Potency [19] 6.16 µM | Potency [18] 7.76 µM | Potency [7] 5.49 µM | Potency [15] 11 µM

CCCCCCCC/C=C/CCCCCCCC1=NCCN1CCO
inconclusive: Potency [11] 54.9 µM | Potency [17] 49 µM [rising, partial curve]
active: Potency [3] 17.4 µM | Potency [14] 24.5 µM | Potency [8] 12.3 µM | Potency [9] 24.5 µM

CC(C)(C)c1cc(/C=C2\SC(=N)NC2=O)cc(C(C)(C)C)c1O
inconclusive: Potency [16] 127 µM [cytotoxic, single point] | Potency [3] 43.6 µM [falling, partial curve, poor fit] | Potency [4] 54.9 µM [falling, partial curve, poor fit] | Potency [13] 54.9 µM [activator, single point] | Potency [19] 43.6 µM [falling, partial curve] | Potency [14] 54.9 µM [activator, single point] | Potency [9] 54.9 µM [activator, single point]
active: Potency [6] 49 µM | Potency [15] 43.6 µM
